# Test results published in paper PMC4336329 (PLoS ONE, 2015).
# Screen size: about 310,000 compounds; about 2,200 (0.71%) showed an effect of 50% or more. Effects have a minus sign here. Some of the results follow.
# Target: human ether-à-go-go-related gene (hERG) potassium channel (human, UniProt Q12809)
# Assay: primary screen, population patch clamp on CHO cells stably expressing hERG
# Sequence of human ether-à-go-go-related gene (hERG) potassium channel (Q12809 whole entry, looked up): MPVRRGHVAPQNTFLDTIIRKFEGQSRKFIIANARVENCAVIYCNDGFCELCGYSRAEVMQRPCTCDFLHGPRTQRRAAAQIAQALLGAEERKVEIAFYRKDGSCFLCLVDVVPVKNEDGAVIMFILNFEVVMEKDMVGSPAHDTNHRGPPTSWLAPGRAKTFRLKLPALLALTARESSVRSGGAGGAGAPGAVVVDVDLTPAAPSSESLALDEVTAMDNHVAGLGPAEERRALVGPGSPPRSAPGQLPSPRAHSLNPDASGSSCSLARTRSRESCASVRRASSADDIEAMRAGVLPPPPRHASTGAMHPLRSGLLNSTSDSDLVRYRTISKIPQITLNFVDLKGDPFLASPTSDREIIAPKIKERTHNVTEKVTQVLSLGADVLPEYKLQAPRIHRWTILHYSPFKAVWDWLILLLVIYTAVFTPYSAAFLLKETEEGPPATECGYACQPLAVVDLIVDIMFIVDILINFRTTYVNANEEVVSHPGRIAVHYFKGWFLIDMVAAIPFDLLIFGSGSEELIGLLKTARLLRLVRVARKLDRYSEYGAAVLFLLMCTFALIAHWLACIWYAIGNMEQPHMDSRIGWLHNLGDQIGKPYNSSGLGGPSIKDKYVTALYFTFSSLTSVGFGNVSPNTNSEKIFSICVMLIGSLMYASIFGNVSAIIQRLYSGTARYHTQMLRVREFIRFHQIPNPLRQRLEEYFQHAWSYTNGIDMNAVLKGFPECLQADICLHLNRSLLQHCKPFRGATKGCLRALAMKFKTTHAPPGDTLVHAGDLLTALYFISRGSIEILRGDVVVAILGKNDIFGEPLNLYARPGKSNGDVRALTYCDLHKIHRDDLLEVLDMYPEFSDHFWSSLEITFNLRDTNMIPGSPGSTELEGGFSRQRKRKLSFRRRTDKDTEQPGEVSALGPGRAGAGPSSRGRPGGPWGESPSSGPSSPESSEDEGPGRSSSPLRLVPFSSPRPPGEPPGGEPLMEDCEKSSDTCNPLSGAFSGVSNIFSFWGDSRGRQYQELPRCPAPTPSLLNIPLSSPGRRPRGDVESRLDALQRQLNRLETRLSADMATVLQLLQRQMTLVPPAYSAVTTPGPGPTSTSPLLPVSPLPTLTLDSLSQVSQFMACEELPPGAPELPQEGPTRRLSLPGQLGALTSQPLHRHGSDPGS
row,Compound,"hERG current change (%, negative = inhibition) at 1uM [%]"
1,Cc1cc(S(=O)(=O)N2CCCC2)c(C)s1,5.88
2,Cc1ccc(CNC(=O)CSc2nc3[nH]ncc3c(=O)[nH]2)cc1,6.8
3,C=CCC(C#Cc1ccccc1)[N+](C)(C)CC=C.[Br-] (centres unmarked),6.41
4,CCOC(=O)c1cnn(-c2ccccc2)c1NC(=O)CN1CCOCC1,15.7
5,O=C(Nc1ccccc1C(=O)NCCc1ccc(O)cc1)c1ccco1,14.8
6,Cc1ccc(S(=O)(=O)c2nc(-c3ccccc3Br)oc2N(C)C)cc1,1.36
7,CC(C)C[C@H](NC(=O)c1nc[nH]c1C(=O)NC1CCN(C(=O)OC(C)(C)C)CC1)C(=O)OC(C)(C)C,-0.581
8,COc1cc2c(cc1OC)C1CC(=O)C(CC(C)C)CN1CC2 (centres unmarked),10.6
9,COc1ccc(CCN2CC(C(=O)Nc3ccc4c(c3)OCO4)CC2=O)cc1OC (centres unmarked),17.1
10,Nn1c(-c2ccco2)n[nH]c1=S,12.1
11,N#Cc1c(NC(=O)CSc2ncn[nH]2)sc2c1CCCCC2,7.88
12,O=C(O)Cn1nnnc1SCC(=O)Nc1ccc(F)cc1F,17.8
13,COc1ccc(Nc2nc3ccccc3nc2NS(=O)(=O)c2cccs2)cc1,5.73
14,O=C(CCCn1c(=S)[nH]c2cc3c(cc2c1=O)OCO3)N1CCN(c2ncccn2)CC1,-1.33
15,Cc1cc(C)c2[nH]c(=O)c(CN(CC3CCCO3)C(=S)NCc3ccco3)cc2c1 (centres unmarked),4.55
16,Cc1c(Br)c(C(=O)NCc2cc3cc(Cl)ccc3[nH]2)nn1C,13.2
17,COc1ccc([C@@]2(O)c3c(ccc(CC=C(C)C)c3O)NC(=O)[C@@H]2OC)cc1,17.9
18,Cc1cc(NC(=O)COc2cccc(Oc3ccccc3)c2)no1,2.18
19,O=C(Nc1cccc2nsnc12)c1ccc(-c2ccc(Br)cc2)o1,17.3
20,O=C(c1n[nH]c2ccccc12)N1CCCCC1,8.84
21,CCc1ccc(CNC(=O)C2CC(=O)N(C3CCCC3)C2)cc1 (centres unmarked),11.6
22,CC(C)C(NC(=O)/C(=C/c1ccco1)NC(=O)c1ccc(Br)o1)C(=O)O (centres unmarked),12.7
23,CCCN(CC1CC1)S(=O)(=O)c1ccc(S(N)(=O)=O)cc1,-1.2

row,Compound,"hERG current change (%, negative = inhibition) at 1uM [%]"
1,CN(C(=O)c1ccccc1Cl)c1ccccc1C(=O)NCc1ccccc1,6.8
2,O=C(Nc1ccc(C(F)(F)F)cc1)c1csc(-c2ccncc2)n1,-2.94
3,O=C(CN1CCN(c2ncc(C(F)(F)F)cc2Cl)CC1)NCCNc1ncc(C(F)(F)F)cc1Cl,18.1
4,Cc1cc(NC(=O)CSc2nnc(NCc3ccco3)s2)no1,10.7
5,CCOC(=O)/C(=N\Nc1ccccc1Cl)N1CCN(C)CC1,-5.92
6,O=C(CN1C(=O)COc2ccc(Cl)cc21)NC1CC1,7.46
7,CC1(C#CC[N+]2(C)CCCCC2)CCC2C(O1)c1ccccc1OC2(C)C.[I-] (centres unmarked),16.2
8,CC(Nc1ccc(F)cc1)=[N+](C)CCNS(=O)(=O)c1ccc(Cl)cc1.[I-],-45.1
9,Cc1cccc(C(=O)NCc2nnc3c4ccccc4c(-c4ccccc4)nn23)c1,-6.83
10,CCCN1CCN(C(=O)Cn2cnc3sc(C)c(S(=O)(=O)N4CCC(C)CC4)c3c2=O)CC1,11.8
11,S=c1[nH]nc(COc2ccccc2)n1/N=C/c1ccccc1Br,15.1
12,COc1ccc(NC(=O)C2C(c3ccccc3)C2(Cl)Cl)cc1 (centres unmarked),12.5
13,CC(=O)Nc1nc(C)cs1,7.8
14,COc1ccc2c(C)cc(SCC(=O)Nc3nsc(-c4ccc(C)cc4)n3)nc2c1,1.13
15,Cc1ccc(NCC(=O)Nc2cccc(F)c2)cc1S(=O)(=O)N1CCCCCC1,-1.81
16,CN1CCN(CC(=O)Nc2ccc([N+](=O)[O-])cc2C(=O)c2ccccc2)CC1,-91.5
17,COc1cccc(C2CC(=O)NC(SC)=C2C#N)c1 (centres unmarked),7.86
18,COc1ccc(C2/C(=C(/O)c3ccc4c(c3)CC(C)O4)C(=O)C(=O)N2Cc2cccnc2)cc1 (centres unmarked),9.88
19,CC(NC(=O)COC(=O)c1cc(NS(=O)(=O)c2ccc(Cl)c([N+](=O)[O-])c2)ccc1O)C1CC2CCC1C2 (centres unmarked),6.36
20,O=C(NCc1cccs1)c1ccc(S(=O)(=O)N2CCOCC2)cc1,1.56
21,Cc1ccc(S(=O)(=O)NN/C(=N/S(=O)(=O)c2ccccc2)c2ccccc2)cc1,7.15
22,O=C1Nc2ccccc2C1(O)c1ccccc1O (centres unmarked),13.7
23,CC(C)(O[C@@H]1O[C@H](CO)[C@@H](O)[C@H](O)[C@H]1O)[C@@H]1CC=C(C(=O)O)CC1,10.4

row,Compound,"hERG current change (%, negative = inhibition) at 1uM [%]"
1,O=C1CCNCCN1[C@H](CO)c1ccccc1,10.9
2,CC(C)C[C@H](NC(=O)Nc1cccc(Cl)c1)C(=O)O,4.92
3,CCc1ccccc1NC(=O)NC1CC2CCC(C1)N2Cc1cccs1 (centres unmarked),-1.25
4,O=C(C1CCCCC1)N(Cc1nc2sc3c(c2c(=O)[nH]1)CCCC3)Cc1cccs1,12.1
5,c1csc(CSc2nnc3sc4ccccc4n23)c1,-1.43
6,O=C(CCc1nc2ccccc2s1)N1CCN(S(=O)(=O)c2cccs2)CC1,-10.3
7,CC(C)(C)OC(=O)N1CC(O)CC1C(=O)OCC(=O)c1ccc(Cl)cc1 (centres unmarked),-6.58
8,COc1ccccc1NS(=O)(=O)c1ccc2oc(SC)nc2c1,7.14
9,Cc1cc(C(F)(F)F)c2c(n1)sc1c(O)cc(=O)[nH]c12,2.02
10,O=c1[nH]c(CCl)nc2cc(-c3ccc(Cl)cc3)sc12,7.07
11,CCCCc1c(O)nc(SCC(=O)N2CCCCC2)[nH]c1=O,15.4
12,O=C(COC(=O)c1ccc(Cl)nc1)Nc1cc(S(=O)(=O)N2CCCCC2)ccc1Cl,14.4
13,N#Cc1cccc(NC(=O)CN2CCN(Cc3ccccc3)CC2)c1,-19.1
14,COc1ccc2oc(-c3ccccc3)c(C(=O)N(C)C)c2c1,17.7
15,CCCN(CCC)C1CC(=O)N(Cc2ccccc2)C1=O (centres unmarked),19.9
16,CNS(=O)(=O)c1cccc2nsnc12,4.59
17,O=C(CS(=O)c1ccc(F)cc1)N1CCOCC1 (centres unmarked),6.04
18,CCC(=O)N1CCc2cc(Br)cc(S(=O)(=O)CCC(=O)NCC3CCCO3)c21 (centres unmarked),14.4
19,Cc1ccc2nc(SCC(=O)NCc3ccco3)c(C#N)cc2c1,10.8
20,Cc1nnsc1C(=O)N1CCCC(N2CCN(c3cccc(C(F)(F)F)c3)CC2)C1 (centres unmarked),3.26
21,COc1ccc(CNc2nnnn2C)cc1,18.6
22,O=C(Nc1ncc(Cc2ccccc2)s1)C1COc2ccccc2O1 (centres unmarked),8.47
23,Cc1cc(C)nc(Nc2n[nH]c(COc3ccc(Cl)cc3)n2)n1,-4.88

row,Compound,"hERG current change (%, negative = inhibition) at 1uM [%]"
1,CCC1(C)C(Nc2c(C)cccc2C)=NC(=S)N1c1ccc(NC(C)=O)cc1 (centres unmarked),10.5
2,CCCC(C)NC(=O)CN(Cc1ccco1)S(=O)(=O)c1ccccc1 (centres unmarked),11.5
3,CC1(C)Cc2cccc(OCC(=O)NCCc3ccc(S(N)(=O)=O)cc3)c2O1,6.49
4,CCOc1ccc(CNC(=O)c2cccc(NC(=O)C3=C(C)OCCS3)c2)cc1,11.4
5,Cc1cccc(NC(=O)C2CCN(c3nccc(C)n3)CC2)c1,14
6,Cc1ccc(S(=O)(=O)N2CCN(S(C)(=O)=O)C2C)cc1 (centres unmarked),7.04
7,Cc1nc2nc(C)c(NS(=O)(=O)c3ccc(CC(C)C)cc3)c(=O)n2[nH]1,14.6
8,Cc1ccc(-c2nsc(SCC(=O)NCc3ccc4c(c3)OCO4)n2)cc1,15.2
9,CC1(C)Cc2c(C#N)c(SCc3ccccc3)nc(N3CCOCC3)c2CO1,-7.77
10,COC(=O)C1=C(C(=O)OC)C2(OC1c1ccc(Br)cc1)C(=O)c1ccccc1C2=O (centres unmarked),13.6
11,CCOC(=O)c1ccc(NC(=O)CC2S/C(=N/N=C/c3c[nH]c4ccccc34)NC2=O)cc1 (centres unmarked),2.45
12,CC(C)(C)c1ccc(C(=O)OCCN2CCCCC2)cc1.Cl,-9.85
13,COc1ccccc1N1CCN(C(=O)Cc2ccc(Cl)cc2)CC1,10.4
14,O=C(CN(C1CCCCC1)S(=O)(=O)c1ccc(F)cc1)Nc1ccc2c(c1)OCO2,9.66
15,NS(=O)(=O)c1ccc(CCNC(=O)c2ccc(Cl)nc2)cc1,14.9
16,CN(C)C(CNc1ccc(S(C)(=O)=O)cc1[N+](=O)[O-])c1ccccc1 (centres unmarked),6.49
17,COC(=O)c1c(C)[nH]c(C(=O)CN2CCOCC2)c1C,12.5
18,COc1ccc(CCNC(=O)COc2ccc(-c3ccc(C#N)cc3)cc2)cc1,14.9
19,COCCNC(=S)N1CCCC(CO)C1 (centres unmarked),7.34
20,CCCCN(C)CCCNC(=O)CN1C(=O)CSc2ccc(S(=O)(=O)N3CCOCC3)cc21,7.69
